Data on 88 molecules can be found in PMC4336329 (PLoS ONE, 2015).

The campaign covered roughly 310,000 compounds. About 2,200 (0.71%) showed an effect of 50% or more. Effects have a minus sign here. The list shows a part of the results.

Sequence of human ether-à-go-go-related gene (hERG) potassium channel (Q12809 whole entry, looked up): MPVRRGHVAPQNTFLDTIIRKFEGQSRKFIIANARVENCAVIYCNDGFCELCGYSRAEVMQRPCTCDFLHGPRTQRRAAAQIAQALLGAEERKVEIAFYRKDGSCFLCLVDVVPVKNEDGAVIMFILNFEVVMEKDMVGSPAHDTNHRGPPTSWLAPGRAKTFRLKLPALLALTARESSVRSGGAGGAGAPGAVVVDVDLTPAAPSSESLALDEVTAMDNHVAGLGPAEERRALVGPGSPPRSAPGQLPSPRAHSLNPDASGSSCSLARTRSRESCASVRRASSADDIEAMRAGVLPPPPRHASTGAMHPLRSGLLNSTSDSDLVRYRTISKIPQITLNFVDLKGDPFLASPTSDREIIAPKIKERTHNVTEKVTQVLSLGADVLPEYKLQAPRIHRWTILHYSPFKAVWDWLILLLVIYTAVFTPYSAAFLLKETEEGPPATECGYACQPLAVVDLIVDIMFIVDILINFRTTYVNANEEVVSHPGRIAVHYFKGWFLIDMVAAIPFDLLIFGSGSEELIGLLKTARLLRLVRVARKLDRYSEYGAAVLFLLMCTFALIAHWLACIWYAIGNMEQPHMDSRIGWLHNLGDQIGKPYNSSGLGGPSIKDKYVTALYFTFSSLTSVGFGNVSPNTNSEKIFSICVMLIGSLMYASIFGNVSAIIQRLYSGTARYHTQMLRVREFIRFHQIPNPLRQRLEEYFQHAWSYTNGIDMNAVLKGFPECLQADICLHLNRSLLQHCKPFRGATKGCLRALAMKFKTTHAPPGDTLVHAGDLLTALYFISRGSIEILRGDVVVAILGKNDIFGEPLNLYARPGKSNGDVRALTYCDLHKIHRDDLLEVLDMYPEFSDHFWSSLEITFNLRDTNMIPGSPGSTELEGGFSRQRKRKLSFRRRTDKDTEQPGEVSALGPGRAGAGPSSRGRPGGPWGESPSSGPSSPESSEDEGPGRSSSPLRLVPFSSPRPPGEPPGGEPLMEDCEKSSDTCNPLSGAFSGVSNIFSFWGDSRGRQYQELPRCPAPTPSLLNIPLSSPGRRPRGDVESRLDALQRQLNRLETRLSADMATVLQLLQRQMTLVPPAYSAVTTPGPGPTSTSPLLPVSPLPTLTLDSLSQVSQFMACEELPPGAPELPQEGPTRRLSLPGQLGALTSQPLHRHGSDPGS

This experiment has as its target human ether-à-go-go-related gene (hERG) potassium channel (human, UniProt Q12809). Nature of the experiment: primary screen, population patch clamp on CHO cells stably expressing hERG.
Turning to `O=C(COc1ccc(Br)cc1Cl)NC(=S)Nc1ccccn1`, the “hERG current change (%, negative = inhibition) at 1uM” value is 20.8%. Take `COc1ccc(-c2nnc(SCC(=O)Nc3ccc4c(c3)OCCO4)n2N)cc1OC`: the “hERG current change (%, negative = inhibition) at 1uM” value turned out to be 13.2%.

`O=C(O)C1CC(c2ccccc2)=Nc2ccccc2S1` (stereo not shown): the “hERG current change (%, negative = inhibition) at 1uM” value is reported as 5.39%. On to `CCOC(=O)c1cc2c(=O)[nH]c(C(Cl)(Cl)Cl)nc2o1`, for which the “hERG current change (%, negative = inhibition) at 1uM” value is reported as -0.458%.

For the molecule `COc1ccc(NC(=O)CCSc2nc(C)cs2)cc1`, the “hERG current change (%, negative = inhibition) at 1uM” value was 13.3%. As for `Cc1ccc(NC(=O)CSCC(=O)N(C)CC(=O)Nc2cccc(F)c2)cc1`, the figure is -7.8%. As for `O=C(CCl)N1N=C(c2cccs2)CC1c1ccco1` (stereo not shown), the figure is 12.6%. `CCC(=O)Nc1c(-c2ccc(C)cc2)c(=O)c2ccccc2n1C`: the “hERG current change (%, negative = inhibition) at 1uM” value was 5.39%. For `O=C1CCC(C(=O)N2CCc3ccccc3C2)CN1CCCN1CCOCC1` (stereo not shown) the value was 16.3%. `COc1cccc(/C=N/n2c(-c3cccs3)n[nH]c2=S)c1`: the “hERG current change (%, negative = inhibition) at 1uM” value was 19.4%. As for `CC(NC(=O)CCNC(=O)c1ccco1)c1ccc(F)cc1` (stereo not shown), the figure is 11.3%. For the molecule `CCOc1ccc(-c2[nH]ncc2-c2ccc(OC)c(OC)c2)c(O)c1`, the “hERG current change (%, negative = inhibition) at 1uM” value was found to be 10.3%. `O=C(COc1ccc(Cl)cc1)Nc1nnc(-c2ccc3c(c2)CCCC3)o1`: the “hERG current change (%, negative = inhibition) at 1uM” value stood at 15.8%. As to `O=C(NC1CCN(C(=O)NCc2ccccc2)CC1)c1cccc(F)c1`, the “hERG current change (%, negative = inhibition) at 1uM” value is given as 11.3%.

Regarding `C/C(=N\Nc1c([N+](=O)[O-])c(C)nn1C)c1ccc(F)cc1F`, the “hERG current change (%, negative = inhibition) at 1uM” value stood at 10.3%. For `C/C(=N\N1CCCCC1c1cccnc1)c1c(O)n(C2CCCCC2)c(=S)[nH]c1=O` (stereo not shown) the value was 7.92%; for `O=[N+]([O-])c1cccc(-c2ccc(/C=N/Nc3nc(N4CCCCC4)nc(N4CCCCC4)n3)o2)c1`, 8.37%; for `O=C(NCc1ccc(Cl)cc1)C1CCC(=O)N(C2CCCCCC2)C1` (stereo not shown), 6.46%. For `COc1ccc(Cc2noc(CN3CCNC(=O)CC3)n2)cc1OC` the value was 9.84%; for `CC(C)C(Nc1ncnc2c1oc1ccccc12)C(=O)O` (stereo not shown), -4.03%; for `CCOC(=O)c1c(SC)[nH]c2c(Cl)cccc2c1=O`, 9.9%. Take `COc1ccc(C)cc1NC(=O)CN(Cc1nnc(-c2ccc(Cl)cc2)o1)C1CCCC1`: the “hERG current change (%, negative = inhibition) at 1uM” value was 3.28%. For `CCCCCCn1cc(C(=O)O)c(=O)c2ccccc21` the value was -84.4%; for `O=C(CSCc1ccc(Cl)cc1)NCC1CCCO1` (stereo not shown), -2.31%.

In the case of `CCOC(=O)C1CNc2cc(S(=O)(=O)CC)ccc2O1` (stereo not shown), the “hERG current change (%, negative = inhibition) at 1uM” value is on record as -2.32%. As for `Cl.c1ccc(Nc2nc(NCc3ccco3)c3ccccc3n2)cc1`, the figure is -9.4%; as for `Cc1ccc(S(=O)(=O)N(Cc2ccccc2Cl)C(=O)N2CCN(C)CC2)cc1`, 9.99%. For `COc1cc(C)c(Cl)cc1S(=O)(=O)NCCN1CCOCC1` the value was 17.5%. With `CCN(CC(=O)NCc1ccc(Cl)cc1)C(=O)CNS(=O)(=O)c1ccc(NC(C)=O)cc1`, the “hERG current change (%, negative = inhibition) at 1uM” value was 28.3%. Regarding `CCOc1ccc(OCC(=O)c2c(O)c3ccccc3oc2=O)cc1`, the “hERG current change (%, negative = inhibition) at 1uM” value is recorded as -6.17%. For `Cc1ccc(C2CC(c3cccs3)=NN2C(=O)CCl)cc1` (stereo not shown) the value was 12.8%; for `COc1ccc(Cl)cc1C1=CC(=O)C[C@H](c2ccc(F)cc2)C1`, 5.92%. For `COC(=O)c1ccc(CNC(=O)c2ccc3c(c2)OCCO3)cc1` the value was 11.4%. As for `COC(=O)c1c(NC(=O)CSc2ncnc3c2cnn3-c2ccccc2Cl)sc2c1CCCC2`, the figure is 11.3%; as for `CCOC(=O)C1CCN(C(=O)CNC(=O)c2nn(-c3ccc(OC)cc3OC)c(=O)c3ccccc23)CC1`, 20.6%. For `O=C(Nc1ccccc1[N+](=O)[O-])C1=C(O)CCn2c1nc1ccccc12`, the “hERG current change (%, negative = inhibition) at 1uM” value was found to be 25.9%. Regarding `CCc1ccc(NC(=O)CSc2nnc(Cc3cccn3C)n2-c2ccc(F)cc2)cc1`, the “hERG current change (%, negative = inhibition) at 1uM” value is reported as -1.58%. Turning to `O=C(N/N=C/c1ccc2c(c1)OCO2)c1cccc(NC(=O)c2ccccc2Cl)c1`, the “hERG current change (%, negative = inhibition) at 1uM” value is given as 10.3%.

`COc1ccc(C)cc1S(=O)(=O)N(CC(=O)NC1CCCC1)c1ccc(F)cc1`: the “hERG current change (%, negative = inhibition) at 1uM” value is 1.64%. As for `Cn1ccs/c1=N\S(=O)(=O)c1ccc(Br)cc1`, the figure is 18.8%; as for `O=C(COC(=O)/C=C/c1ccco1)NCc1ccc(Cl)cc1`, 1.97%.

For `O=C(CSc1nnc(Nc2ccccc2F)s1)c1cc2ccccc2o1`, the “hERG current change (%, negative = inhibition) at 1uM” value stood at 5.99%. As for `Cc1c(NC(=O)CN2C(=O)NC3(CCCC3)C2=O)c(=O)n(-c2ccccc2)n1C`, the figure is 10.1%; as for `COc1ccc(OC)c(NC(=O)CN(C)CCOc2ccc(Br)cc2)c1`, 11.5%.

For the molecule `COc1ccc(Oc2nc(C)cc(C)c2S(=O)(=O)c2ccc(C)cc2)cc1`, the “hERG current change (%, negative = inhibition) at 1uM” value is listed as 7.49%. Regarding `N#Cc1c(NC(=S)NC(=O)C2CCCC2)sc2c1CCCCC2`, the “hERG current change (%, negative = inhibition) at 1uM” value is listed as 10.1%. As to `CSc1nnc(C)c(=O)n1COC(=O)COc1ccccc1F`, the “hERG current change (%, negative = inhibition) at 1uM” value was found to be 15.2%. With `COc1ccc(Cl)cc1N(C)C(=O)CCc1nc(-c2ccc(C)cc2)no1`, the “hERG current change (%, negative = inhibition) at 1uM” value is given as 5.49%. For `Cc1c(Cl)cccc1NC(=S)NCCc1ccc(C(F)(F)F)cc1` the value was 11.6%; for `Cc1ccc(CNC(=O)c2cc3c(=O)n(C)c4ccccc4c3n2C)o1`, 3.02%.

For the molecule `CN(Cc1cccc(Cl)c1Cl)C(=O)c1cccc(S(=O)(=O)N2CCN(Cc3ccccc3)CC2)c1`, the “hERG current change (%, negative = inhibition) at 1uM” value came to 1.71%.

As for `Cc1ccc(S(=O)(=O)N2CCCCC2)c2nsnc12`, the “hERG current change (%, negative = inhibition) at 1uM” value was found to be 15.3%.

As to `CN1C(C(=O)NCc2cccc(Br)c2)CC2Cn3c(nc4cc5ccccc5cc43)C21` (stereo not shown), the “hERG current change (%, negative = inhibition) at 1uM” value was -3.5%. For `CC/C(=N\NC(=O)CSCc1ccccc1Cl)c1ccc2c(c1)OCCO2`, the “hERG current change (%, negative = inhibition) at 1uM” value is 9.29%. As for `COCCN(C(=O)COC(=O)Cc1coc2cc(C)ccc12)c1c(N)n(Cc2ccccc2)c(=O)[nH]c1=O`, the “hERG current change (%, negative = inhibition) at 1uM” value is reported as 0.373%. As to `C/C(CCc1ccccc1)=N\NC(=O)c1ccccc1[N+](=O)[O-]`, the “hERG current change (%, negative = inhibition) at 1uM” value is listed as 17.7%. On to `CC(C)n1nnnc1SCC(=O)NCc1ccc2c(c1)OCO2`, for which the “hERG current change (%, negative = inhibition) at 1uM” value stood at 13%. For `COc1ccc(S(=O)(=O)N2CCCC(C(=O)NCc3ccccn3)C2)cc1Cl` (stereo not shown), the “hERG current change (%, negative = inhibition) at 1uM” value is -0.453%. For `O=C(COc1cccc2cccnc12)Nc1cccc(S(=O)(=O)N2CCCC2)c1` the value was 0.359%; for `COc1ccc(-c2nnc(SCc3nnc(-c4cccs4)o3)n2CC2CCCO2)cc1` (stereo not shown), 2.84%; for `Cc1oc2ccc(O)cc2c1C(=O)c1ccc(Br)cc1`, 13.1%. As for `CC12CCCCC1N(O)C(=O)C(=O)N2O` (stereo not shown), the figure is 13.8%; as for `COc1cc(C(=O)O/N=C2\CCCc3c2ccc(OC)c3[N+](=O)[O-])cc(OC)c1OC`, 4.16%. As for `c1ccc(CCc2nc(-c3ccc(-n4cccc4)cc3)no2)cc1`, the figure is 6.48%. For the molecule `O=c1c2ccccc2c(-c2ccc(Cl)cc2)nn1-c1ccccc1`, the “hERG current change (%, negative = inhibition) at 1uM” value is listed as 8.57%. As for `O=C(COC(=O)CCN1C(=O)C2CC=CCC2C1=O)NCCc1ccccc1` (stereo not shown), the figure is -12.7%. With `N#Cc1ccccc1S(=O)(=O)N1CCN(C(=O)[C@H](Cc2ccccc2)NC(=O)c2ccco2)CC1`, the “hERG current change (%, negative = inhibition) at 1uM” value was found to be 4.5%. Regarding `COc1ccccc1C(=O)CN1C(=O)NC2(CCc3ccccc32)C1=O` (stereo not shown), the “hERG current change (%, negative = inhibition) at 1uM” value stood at 7.17%. As for `COc1ccc(CN2C(=O)c3cccnc3C2=O)cc1S(=O)(=O)NC1CCCCC1`, the figure is 10%; as for `O=[N+]([O-])c1cccc(Nc2c([N+](=O)[O-])ccc3nonc23)c1`, 11.9%; as for `Cc1cc(NC(=O)C(C)SCC(=O)Nc2cc(Cl)ccc2N2CCN(C)CC2)no1` (stereo not shown), -7.48%. As for `CCOC(=O)Cc1csc(SCC(=O)NC2CCC(C)CC2)n1` (stereo not shown), the figure is 7.87%; as for `Cc1c(CCO)c(=O)n(-c2ccccc2)n1S(=O)(=O)c1ccc(Cl)cc1`, 14.6%. Take `CCCCNC(=O)c1onc(CSc2cccc(Cl)c2)c1C(=O)O`: the “hERG current change (%, negative = inhibition) at 1uM” value worked out at 3.01%. As for `Cc1ccc(Nc2nnc(SC(C)C(=O)Nc3c(C)n(C)n(-c4ccccc4)c3=O)s2)cc1` (stereo not shown), the figure is 17.1%; as for `CC(C)COc1ccc(C(=O)NCc2ccco2)cc1`, 8.5%. For `Nc1ccccc1C(=O)N1CCCC1` the value was 6.59%; for `Cc1ccc(CNC(=O)CCc2ccccc2)cc1`, 5.25%; for `CCCC(=O)NC(c1ccc(C)cc1)c1ccc2cccnc2c1O` (stereo not shown), 14%. For `Cc1ccc(-n2ncc3c2CC(C)(C)CC3NC(=O)CCn2cncn2)cc1` (stereo not shown) the value was -78.5%; for `CC(=O)Nc1nc(=O)c2ccccc2s1`, 6.26%; for `CCOC(=O)c1csc(NC(=O)CSc2nnc(C3CC3)n2C)n1`, 12.4%. In the case of `O=C(c1ccccc1Sc1ccc([N+](=O)[O-])cc1)N1CCCCC1`, the “hERG current change (%, negative = inhibition) at 1uM” value was 1.13%. For the molecule `COc1ccc(Cl)cc1NC(=O)CC1S/C(=N/N=C2CCCCCC2)NC1=O` (stereo not shown), the “hERG current change (%, negative = inhibition) at 1uM” value is 12.3%. Regarding `CC(C)(C)c1ccc(-c2n[nH]c(=S)n2-c2ccccc2)cc1`, the “hERG current change (%, negative = inhibition) at 1uM” value stood at 14.6%. As for `COc1ccc2c(CC(=O)Nc3ccc(OC)c(S(=O)(=O)N4CCOCC4)c3)coc2c1`, the “hERG current change (%, negative = inhibition) at 1uM” value was determined as 5.88%. As for `C/C(=C\CCC1(C)C2CC3C(C2)C31C)C(=O)O` (stereo not shown), the figure is 11.2%. `CCN(CC)c1ccc(NC(=O)CCCCC(=O)Nc2ccc(N(CC)CC)cc2)cc1`: the “hERG current change (%, negative = inhibition) at 1uM” value came to 0.481%.
